# Assay results: the supplement of paper PMC8813932
# Counter-ions that a name gives are not always drawn. ± gives the standard deviation of the averaged measurements. Some of the results follow. Most values come without repeats; read them as rough.
# What was measured:
# Assay in all cases: log2 surviving fraction relative to plate median (drug vs vehicle, or drug+dl922-947 vs dl922-947 alone); ovarian cancer lines: OVCAR4 is platinum-sensitive while Ov4Cis resists cisplatin and Ov4Carbo carboplatin; higher = more cell survival
# Conditions in all cases: compound concentration: 10 uM, 192 h
# [1] = test system: OVCAR4
# [2] = test system: Ov4Carbo
# [3] = test system: Ov4Cis
# [4] = dl922-947 oncolytic adenovirus co-treatment: MOI 10
# [5] = dl922-947 oncolytic adenovirus co-treatment: none
Structure (SMILES),"log2 surviving fraction [1, 4]","log2 surviving fraction [1, 5]","log2 surviving fraction [2, 4]","log2 surviving fraction [2, 5]","log2 surviving fraction [3, 4]","log2 surviving fraction [3, 5]"
C=C[C@]1(C)C[C@@H](OC(=O)CSC(C)(C)CNC(=O)[C@H](N)C(C)C)[C@]2(C)[C@H](C)CC[C@]3(CCC(=O)[C@H]32)[C@@H](C)[C@@H]1O [Valnemulin HCl],-1.75 ± 0.47,-2.78 ± 0.57,-2.03,-2.06,-2.03,-2.29
N=C(N)NC(=O)c1nc(Cl)c(N)nc1N [Amiloride hydrochloride (Midamor)],0.679 ± 0.22,-0.263 ± 0.58,0.0937,0.0246,-0.383,-0.607
Cc1cc(C(C#N)c2ccc(Cl)cc2)c(Cl)cc1NC(=O)c1cc(I)cc(I)c1O (stereo not given) [Closantel],0.231 ± 0.35,0.586 ± 0.26,1.47,-0.241,0.727,0.396
CC(C(=O)O)c1ccc2c(c1)[nH]c1ccc(Cl)cc12 (stereo not given) [Carprofen],0.565 ± 0.1,0.212 ± 0.68,0.312,-0.506,-0.925,0.742
CC(C)NCC(O)COc1ccc(CCOCC2CC2)cc1 (stereo not given) [Betaxolol (Betoptic)],0.552 ± 0.21,0.292 ± 0.27,-0.647,-0.655,0.179,0.44
N=C(N)NC(=N)NCCc1ccccc1 [Phenformin hydrochloride],-0.874 ± 0.61,-1.29 ± 0.58,0.59,-0.452,-0.215,-0.144
CCCN(CCC)S(=O)(=O)c1ccc(C(=O)O)cc1 [Probenecid (Benemid)],0.539 ± 0.9,0.65 ± 0.34,0.294,2.13,0.324,0.753
CCC(=O)O[C@@H](O[P@](=O)(CCCCc1ccccc1)CC(=O)N1C[C@H](C2CCCCC2)C[C@H]1C(=O)O)C(C)C [Fosinopril sodium (Monopril)],0.696 ± 0.79,-0.174 ± 0.5,0.555,0.254,0.105,-0.22
Cc1cc(C2CCCCC2)n(O)c(=O)c1 [Ciclopirox (Penlac)],-5.86 ± 1.1,-7.82 ± 2.6,-4.69,-10.1,-4.51,-10.7
CCc1nc(N)nc(N)c1-c1ccc(Cl)cc1 [Pyrimethamine],-0.588 ± 0.23,-2.94 ± 2.1,-0.217,-1.08,0.188,-1.49
CCCC(C(=O)OCCN(CC)CC)(c1ccccc1)c1ccccc1 [Proadifen HCl],-1.06 ± 0.59,-1.67 ± 0.7,-2.83,-1.72,-3.44,-1.12
CC(C)(Sc1cc(C(C)(C)C)c(O)c(C(C)(C)C)c1)Sc1cc(C(C)(C)C)c(O)c(C(C)(C)C)c1 [Probucol],0.293 ± 0.32,0.369 ± 0.49,0.595,-0.0481,0.418,0.108
Cc1nc2n(c(=O)c1CCN1CCC(c3noc4cc(F)ccc34)CC1)CCCC2O (stereo not given) [Paliperidone (Invega)],-0.275 ± 0.022,0.0891 ± 0.092,0.333,1.12,0.679,-0.409
C=C1/C(=C\C=C2/CCC[C@]3(C)[C@@H]([C@H](C)/C=C/[C@H](C)C(C)C)CC[C@@H]23)C[C@@H](O)C[C@@H]1O [Doxercalciferol (Hectorol)],0.146 ± 0.44,-1.95 ± 1.1,-0.48,-2.13,-0.103,-0.782
C[C@]12CCC(=O)C=C1[C@@H]1C[C@@H]1[C@H]1[C@@H]3[C@@H]4C[C@@H]4[C@@]4(CCC(=O)O4)[C@@]3(C)CC[C@@H]12 [Drospirenone],-0.134 ± 0.18,0.466 ± 0.12,0.244,-0.0474,0.658,0.747
N#CC(c1ccc(Cl)cc1)c1c(Cl)cc(-n2ncc(=O)[nH]c2=O)cc1Cl (stereo not given) [Diclazuril],-0.301 ± 0.11,-0.919 ± 0.17,-0.125,-0.532,-0.361,-1.6
CC(C)[C@H](N)C(=O)OCCOCn1cnc2c(=O)nc(N)[nH]c21 [Valaciclovir HCl],-0.219 ± 0.51,0.327 ± 0.42,0.969,-0.916,0.499,-0.092
Oc1ccc(/C=C/c2cc(O)cc(O)c2)cc1 [Resveratrol],-2.15 ± 0.47,-2.32 ± 0.28,-1.43,-2.86,-3.04,-2.76
O=C(OCC(O)CO)c1ccccc1Nc1ccnc2cc(Cl)ccc12 (stereo not given) [Glafenine HCl],-0.764 ± 0.26,-1.07 ± 0.19,-1.72,-1.76,-1.45,-1.65
CCOC(=O)[C@H](CCc1ccccc1)N[C@@H](C)C(=O)N1Cc2ccccc2C[C@H]1C(=O)O [Quinapril HCl (Accupril)],-0.305 ± 0.35,0.33 ± 0.49,0.539,-0.0911,-0.413,0.618
CC[C@@H]([C@H](C)O)n1ncn(-c2ccc(N3CCN(c4ccc(OC[C@@H]5CO[C@@](Cn6cncn6)(c6ccc(F)cc6F)C5)cc4)CC3)cc2)c1=O [Posaconazole],0.375 ± 1.3,3.6 ± 1.5,-3.81,-6.56,0.673,2.32
Nc1nc(N)nc(NC2CC2)n1 [Cyromazine],0.301 ± 0.13,0.26 ± 0.38,0.448,0.649,0.191,0.578
C=CCN1CC[C@]23c4c5ccc(O)c4O[C@H]2C(=O)CC[C@@]3(O)[C@H]1C5 [Naloxone HCl],0.845 ± 0.033,0.0025 ± 0.073,-0.0153,1.37,-0.195,1.17

Structure (SMILES),"log2 surviving fraction [1, 4]","log2 surviving fraction [1, 5]","log2 surviving fraction [2, 4]","log2 surviving fraction [2, 5]","log2 surviving fraction [3, 4]","log2 surviving fraction [3, 5]"
NNC(=O)c1ccncc1.Nc1ccc(C(=O)O)c(O)c1 [Pasiniazid],0.299 ± 0.43,-0.168 ± 0.73,0.47,-0.00708,-0.0113,-0.181
Cn1nnc2c(C(N)=O)ncn2c1=O [Methazolastone],0.366 ± 0.23,2.98 ± 3.5,2.2,0.393,0.723,0.564
CN1CCN(c2cc3c(cc2F)c(=O)c(C(=O)O)cn3-c2ccc(F)cc2)CC1 [Difloxacin HCl],0.462 ± 0.025,0.2 ± 0.087,-0.703,0.193,-1.45,-0.449
C=CC[C@]1(O)CC[C@H]2[C@@H]3CCC4=CC(=O)CCC4=C3C=C[C@@]21C [Altrenogest],-0.619 ± 0.58,-0.958 ± 0.23,-0.603,0.707,-0.839,0.0308
Cc1c(NC(=O)c2cccnc2)c(=O)n(-c2ccccc2)n1C [Nifenazone],0.00343 ± 0.37,-0.39 ± 1.1,1.16,0.264,0.42,-0.136
O=c1[nH]c(=O)n(C2CCCO2)cc1F (stereo not given) [Ftorafur],0.257 ± 0.91,-1.15 ± 1.3,-0.324,0.187,0.232,0.581
NCCC(O)(P(=O)(O)O)P(=O)(O)O [Pamidronate Disodium],-0.0576 ± 1.2,1.17 ± 0.13,1.33,0.73,0.554,0.253
Nc1ccc(S(N)(=O)=O)cc1 [Sulfanilamide],2.03 ± 1.9,0.073 ± 0.018,1.86,0.641,0.276,0.64
OC(CCN1CCCC1)(c1ccccc1)C1CCCCC1 (stereo not given) [Procyclidine HCl],-0.803 ± 0.39,-0.383 ± 0.36,-0.853,-0.252,-1.24,-1.49
Fc1ccc([C@@H]2CCNC[C@H]2COc2ccc3c(c2)OCO3)cc1 [Paroxetine HCl],-5.69 ± 1.4,-4.6 ± 0.33,-4.12,-6.55,-8.06,-9.21
CC(=O)OCC1=C(C(=O)O)N2C(=O)[C@@H](NC(=O)CSc3ccncc3)[C@H]2SC1 [Cephapirin Sodium],0.0796 ± 0.3,0.117 ± 0.14,-0.176,-0.513,-0.318,0.205
CCS(=O)(=O)CCn1c([N+](=O)[O-])cnc1C [tinidazole],0.49 ± 0.48,-0.145 ± 0.92,-0.719,0.0807,0.267,0.5
O=C(O)c1nn(Cc2ccc(Cl)cc2Cl)c2ccccc12 [Lonidamine],-0.0136 ± 0.75,0.129 ± 0.014,0.395,-0.0368,-0.146,0.127
CC(=O)OCC(CCn1cnc2cnc(N)nc21)COC(C)=O [Famciclovir (Famvir)],1.19 ± 0.4,-0.00534 ± 0.43,0.201,0.922,0.609,0.202
O=C(O)Cc1ccccc1Nc1c(Cl)cccc1Cl [Diclofenac Diethylamine],0.425 ± 0.78,-0.685 ± 1.2,-1.18,0.602,-1.22,-0.476
CNS(=O)(=O)CCc1ccc2[nH]cc(C3CCN(C)CC3)c2c1 [Naratriptan HCl],0.617 ± 0.15,0.124 ± 0.11,-0.297,-0.0112,0.295,0.0638
CCCCOc1ccc(OCCCN2CCOCC2)cc1 [Pramoxine HCl],-0.668 ± 0.24,-0.518 ± 1.3,-0.2,-0.463,-0.00621,-1.03
CCN(CC)CCOC(=O)C(c1ccccc1)c1ccccc1 [Adiphenine HCl],0.0723 ± 0.67,-0.119 ± 0.79,-0.227,0.161,0.144,0.67
CCCNC(C)C(=O)Nc1ccccc1C (stereo not given) [Prilocaine],-0.273 ± 0.32,-0.0713 ± 0.039,0.863,0.384,0.148,-0.727
C=CC1=C(C(=O)O)N2C(=O)[C@@H](NC(=O)/C(=N\O)c3csc(N)n3)[C@H]2SC1 [Cefdinir (Omnicef)],0.171 ± 0.58,-0.65 ± 0.042,0.532,0.547,0.117,0.488
Clc1ccc(C(Cn2ccnc2)OCc2c(Cl)cccc2Cl)c(Cl)c1 (stereo not given) [Isoconazole nitrate (Travogen)],-1.16 ± 0.17,-3.01 ± 0.4,-0.911,-3.68,-1.5,-0.701
CCCc1nc2c(C)cc(-c3nc4ccccc4n3C)cc2n1Cc1ccc(-c2ccccc2C(=O)O)cc1 [Telmisartan (Micardis)],-0.38 ± 0.68,-0.377 ± 0.47,-0.179,1.13,0.179,-0.755
